Laboratory results as given in PMC4336329 (PLoS ONE, 2015).
Hit rate of the full screen: of about 310,000 compounds, about 14,000 (4.5%) showed an effect of 50% or more. Effects have a minus sign here. This is one part of the list.

Molecular target: human ether-à-go-go-related gene (hERG) potassium channel (human, UniProt Q12809)
Assay: primary screen, population patch clamp on CHO cells stably expressing hERG
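Note: peak tail current of the secondary pulse compared with the same well before compound.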

Sequence of human ether-à-go-go-related gene (hERG) potassium channel (Q12809 whole entry, looked up): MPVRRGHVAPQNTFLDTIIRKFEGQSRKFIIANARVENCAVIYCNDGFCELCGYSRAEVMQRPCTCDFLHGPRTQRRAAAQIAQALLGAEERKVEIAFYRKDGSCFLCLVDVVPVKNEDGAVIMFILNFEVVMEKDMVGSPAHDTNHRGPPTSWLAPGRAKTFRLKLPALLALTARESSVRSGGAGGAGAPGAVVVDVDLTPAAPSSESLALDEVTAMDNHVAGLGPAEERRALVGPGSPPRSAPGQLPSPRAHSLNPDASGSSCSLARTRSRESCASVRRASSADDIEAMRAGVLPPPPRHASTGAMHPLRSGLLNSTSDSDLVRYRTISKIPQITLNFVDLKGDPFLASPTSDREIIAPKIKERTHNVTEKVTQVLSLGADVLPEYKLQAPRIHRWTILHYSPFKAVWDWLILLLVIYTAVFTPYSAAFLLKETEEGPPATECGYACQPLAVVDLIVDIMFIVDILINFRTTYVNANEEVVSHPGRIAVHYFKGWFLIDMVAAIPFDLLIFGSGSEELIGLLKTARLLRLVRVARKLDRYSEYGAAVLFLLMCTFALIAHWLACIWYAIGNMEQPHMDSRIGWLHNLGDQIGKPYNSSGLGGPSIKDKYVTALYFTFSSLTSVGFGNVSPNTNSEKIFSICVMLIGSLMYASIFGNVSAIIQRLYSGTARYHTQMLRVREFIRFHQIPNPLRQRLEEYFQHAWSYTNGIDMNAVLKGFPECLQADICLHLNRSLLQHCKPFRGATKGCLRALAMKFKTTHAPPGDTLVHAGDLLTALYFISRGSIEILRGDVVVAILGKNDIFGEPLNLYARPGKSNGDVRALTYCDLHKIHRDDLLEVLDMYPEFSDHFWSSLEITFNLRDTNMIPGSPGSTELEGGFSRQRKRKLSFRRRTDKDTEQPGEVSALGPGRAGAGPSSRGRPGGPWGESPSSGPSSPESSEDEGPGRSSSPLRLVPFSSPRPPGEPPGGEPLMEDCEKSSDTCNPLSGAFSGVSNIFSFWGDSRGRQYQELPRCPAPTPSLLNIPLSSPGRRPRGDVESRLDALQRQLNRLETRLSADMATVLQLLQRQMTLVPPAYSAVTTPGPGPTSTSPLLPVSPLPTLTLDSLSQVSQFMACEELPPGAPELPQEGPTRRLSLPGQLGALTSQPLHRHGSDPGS

Row | SMILES | hERG current change (%, negative = inhibition) at 10uM [%]
1 | Cl.O=C(OCCN1CCOCC1)C1(c2ccccc2)CCCCC1 | -12.1
2 | COc1nc(OCCNS(=O)(=O)c2ccc(C)cc2)nc(N(C)C)n1 | 2.52
3 | Clc1ccc(N/N=C/c2cccs2)nn1 | 7.59
4 | CCOc1cc(C(=O)Nc2cc(C(=O)OC)ccc2C)ccc1OCC(=O)N1CCOCC1 | -7.66
5 | Cn1c(=O)oc2cc(S(=O)(=O)CCC(=O)N3CCN(c4ccccc4F)CC3)ccc21 | 1.03
6 | COc1nc(NCc2ccco2)nc(N2CCC(C)CC2)n1 | -7.48
7 | O=C(CSc1nnc(-c2ccccc2)n1Cc1ccco1)NCc1ccc2c(c1)OCO2 | -14.5
8 | COCCn1c(=S)[nH]c2cc(C(=O)N(CCO)Cc3ccccc3)ccc2c1=O | 4.32
9 | Cc1oc(CC(C)C)cc1C(=O)Nc1ccc(C(=O)O)cc1 | 4.88
10 | CCn1cc(C(=O)NCc2ccc(C)o2)c2cc(OC)c(OC)cc2c1=O | 6.1
11 | COC(=O)Nc1sc2c(c1C(=O)NCc1ccco1)CCCC2 | -8.12
12 | CCS(=O)(=O)c1ncc(Cl)c(C(=O)Nc2ccc(S(=O)(=O)N3CCC(C)CC3)cc2)n1 | 14.9
13 | COc1ccc(-c2nc(CS(=O)CC(=O)NC3CCCCC3C)c(C)o2)cc1OC (stereo not drawn) | 20.1
14 | CCCCC1=CC2=C(c3ccco3)C(=O)C(C)(OC(=O)c3ccc(OC)cc3)C(=O)C2=CN1CC1CC1 (stereo not drawn) | 17.4
15 | CC(/C=C1\SC(=O)N(CC(=O)Nc2ccc(O)cc2)C1=O)=C\c1ccccc1 | -2.14
16 | COc1ccc(Cl)cc1S(=O)(=O)N1CCCC(C(=O)NCCc2ccccc2)C1 (stereo not drawn) | -1.76
17 | CCOC(=O)c1c(NC(=O)c2c(C(=O)O)cccc2[N+](=O)[O-])sc2c1CCCC2 | 13.2
18 | Cc1cc(C)n(C(=O)c2cccc([N+](=O)[O-])c2)n1 | -5.46
19 | O=C(CC(Nc1ccccc1Cl)C(=O)OCC(=O)c1cccs1)c1ccccc1 (stereo not drawn) | 3.93
20 | CCCCC(CC)C(=O)NCc1ccccc1OC (stereo not drawn) | -25.3
21 | CCc1nnc(NC(=O)c2cc([N+](=O)[O-])ccc2N2CCOCC2)s1 | -15
22 | COc1cc(NC(=O)[C@@H]2CCCN(S(=O)(=O)c3cccc4cccnc34)C2)cc(OC)c1OC | -3.26
23 | CCOC(=O)Cn1c(=N)n(CCOc2ccc(OC)cc2)c2ccccc21.Cl | -56.4
24 | COc1cc(OC)cc(C(=O)NC2CCN(Cc3nnnn3Cc3cccs3)CC2)c1 | -49.7
25 | C=CCn1c(N)cc(=O)nc1SCC(=O)Nc1ccc2ccccc2c1 | 9.79
26 | COc1ccc(CN2CCCCC2C(=O)Nc2ccc(OC)c(OC)c2)cc1OC (stereo not drawn) | -32.7
27 | O=S(Cc1ccccc1)CC(O)(c1ccc(Cl)cc1)c1ccc(Cl)cc1 (stereo not drawn) | -10.2

Row | SMILES | hERG current change (%, negative = inhibition) at 10uM [%]
28 | COC(=O)c1ccccc1S(=O)(=O)N1CCC(C(=O)NCCC2=CCCCC2)CC1 | -26.8
29 | O=c1c2c(nc3nc[nH]n13)CCC2 | -5.27
30 | Cc1cc(=O)[nH]c(Cc2ccc(OC(C)C)cc2)n1 | 6.94
31 | Fc1cccc(-c2cc3nc4c(c(N5CCC6(CC5)OCCO6)n3n2)CCCC4)c1 | -2.48
32 | COc1ccc([N+](=O)[O-])cc1NC(=O)c1ccc(CN(c2ccccc2)S(C)(=O)=O)cc1 | 0.0353
33 | Cn1nccc1C(=O)OCC(=O)Nc1cccc(Cl)c1 | -8.23
34 | Cc1cccc(OCC(=O)N2CCN(Cc3ccncc3)CC2)c1.O=C(O)C(=O)O | 8.94
35 | COc1ccc2c(c1)[C@@H]1[C@H](CO2)[C@H](c2ccccc2)[C@]2(C)C(=O)Nc3ccc(C)cc3C(=O)N12 | -19.3
36 | COc1ccccc1OCC(=O)N1CCCC(N(C)Cc2ccccc2)C1 (stereo not drawn) | -45.3
37 | CCc1nnc(NS(=O)(=O)c2ccc(NC(=O)c3cccc(Br)c3)cc2)s1 | 13.7
38 | COc1ccc(N(CC(=O)Nc2ccccc2C(=O)NCc2ccco2)S(C)(=O)=O)cc1 | -14.6
39 | CCc1ccc(NC(=O)CSCc2ccc(C(=O)O)cc2)cc1 | -5.93
40 | O=C(NCC1CCCO1)c1ccccc1-c1nc(-c2ccc(Cl)cc2)no1 (stereo not drawn) | -28.3
41 | O=C(CNC(=O)c1ccc(Br)cc1)c1ccc(Br)cc1 | 21.9
42 | CCN(CCNC(=O)CN1CCN(Cc2ccc(Cl)cc2)C1=O)c1ccccc1 | -52
43 | CC1CCCN(CC(=O)N2CCCc3ccccc32)C1.[O-][Cl+3]([O-])([O-])O (stereo not drawn) | -4.32
44 | COCCN(CC1CCCN(C2Cc3ccccc3C2)C1)C(=O)c1cccs1 (stereo not drawn) | -68.5
45 | CCN(C(=O)CSc1nc2ccccc2c(=O)n1-c1ccc(C)cc1)C1CCS(=O)(=O)C1 (stereo not drawn) | -11.6
46 | CN(C)c1nc(N(C)C)nc(N(C#N)CCOc2ccccc2)n1 | -4.58
47 | Cc1cccc(C(=O)NC(C)C(=O)NC(c2nc3ccccc3[nH]2)C(C)C)c1 (stereo not drawn) | -7.29
48 | CCn1c(C)cc(/C=C2/SC(=O)N(CC(=O)N3CCCC3)C2=O)c1C | -14.8
49 | COc1ccc(C(=O)NC2CC2)cc1OC1CCN(Cc2ccc(Cl)cc2)CC1 | -78.8
50 | Cc1cc(C)nc(NNC(=O)NC2CCCCC2)n1 | 2.31
51 | CCCCCCC(C)OC(=O)c1ccccc1C(=O)O (stereo not drawn) | 16
52 | COc1cc(/C=C2\SC(=S)N(CCC(=O)Nc3cccc(O)c3)C2=O)cc(OC)c1OC | 16.3
53 | O=P(O)(Oc1ccccc1)OC(c1ccccc1)C(F)(F)F (stereo not drawn) | 22.2
54 | COc1ccccc1/C=C/C(=O)OCC(=O)NNC(=O)c1ccccc1 | -1.5
